Source: paper PMC4336329 (PLoS ONE, 2015)
The campaign covered roughly 310,000 compounds. About 2,200 (0.71%) showed an effect of 50% or more. Effects have a minus sign here. This is one part of the list.

These compounds were tested against human ether-à-go-go-related gene (hERG) potassium channel (human, UniProt Q12809) (assay: primary screen, population patch clamp on CHO cells stably expressing hERG).
Chain of human ether-à-go-go-related gene (hERG) potassium channel (Q12809 whole entry, looked up): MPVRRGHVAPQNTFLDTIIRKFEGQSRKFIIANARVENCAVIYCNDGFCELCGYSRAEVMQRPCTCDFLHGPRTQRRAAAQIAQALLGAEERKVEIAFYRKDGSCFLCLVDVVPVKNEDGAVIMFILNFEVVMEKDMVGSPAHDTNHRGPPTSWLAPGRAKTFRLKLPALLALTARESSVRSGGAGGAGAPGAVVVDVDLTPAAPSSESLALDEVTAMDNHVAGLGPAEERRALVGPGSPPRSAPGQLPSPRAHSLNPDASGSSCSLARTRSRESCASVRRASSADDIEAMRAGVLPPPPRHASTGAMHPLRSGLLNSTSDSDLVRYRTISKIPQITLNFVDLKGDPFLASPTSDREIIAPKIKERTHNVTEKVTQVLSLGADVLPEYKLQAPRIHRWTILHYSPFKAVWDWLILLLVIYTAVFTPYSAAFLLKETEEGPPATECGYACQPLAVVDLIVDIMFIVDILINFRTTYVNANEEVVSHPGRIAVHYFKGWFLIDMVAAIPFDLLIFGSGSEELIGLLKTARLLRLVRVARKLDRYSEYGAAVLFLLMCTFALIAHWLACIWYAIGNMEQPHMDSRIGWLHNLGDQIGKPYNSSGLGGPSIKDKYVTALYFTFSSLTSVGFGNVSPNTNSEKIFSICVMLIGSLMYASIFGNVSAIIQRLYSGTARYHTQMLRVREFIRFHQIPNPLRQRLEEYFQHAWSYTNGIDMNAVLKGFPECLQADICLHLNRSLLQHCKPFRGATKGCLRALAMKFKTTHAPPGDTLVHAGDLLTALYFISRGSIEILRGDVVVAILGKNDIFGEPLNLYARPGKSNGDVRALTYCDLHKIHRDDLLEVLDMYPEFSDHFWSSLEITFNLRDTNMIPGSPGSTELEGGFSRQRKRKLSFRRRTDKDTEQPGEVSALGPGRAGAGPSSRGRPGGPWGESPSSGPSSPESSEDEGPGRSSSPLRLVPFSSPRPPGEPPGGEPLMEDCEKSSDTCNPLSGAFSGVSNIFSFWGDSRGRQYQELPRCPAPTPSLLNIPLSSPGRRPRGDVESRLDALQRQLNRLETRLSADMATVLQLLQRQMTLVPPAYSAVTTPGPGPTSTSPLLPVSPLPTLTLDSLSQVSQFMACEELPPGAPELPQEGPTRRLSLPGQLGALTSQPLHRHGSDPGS

Structure (SMILES) | hERG current change (%, negative = inhibition) at 1uM [%]
Cc1cc(/C=C2/C(=O)NC(=O)N(Cc3ccco3)C2=O)c(C)n1-c1ccccc1 | 8.05
CCOC(=O)/C(C#N)=C/c1ccc(OC)c(OC)c1 | 8.32
C[C@H]1CN=C(Nc2ccccc2)N1CCC1CCCCC1 | -11.8
O=C(Nc1cc(Sc2ccccn2)cc([N+](=O)[O-])c1)c1cccc(F)c1 | 16.5
O=c1cc(C(F)(F)F)c2sc(N3CCCCC3)nc2[nH]1 | 14.9
CCCNC(=O)c1onc(CSc2ccncc2)c1C(=O)NCCC | 7.34
CCOC(=O)c1c(C)noc1-c1ccc(Br)o1 | 0.722
CC(=O)c1ccc(NC(=O)CO/N=C(\C)c2cccs2)cc1 | 7.1
CN(CC(=O)Nc1ccc(F)cc1)C(=O)COC(=O)c1ccccc1 | -0.934
CC(C)CN(C(=O)COC(=O)c1cccc2ccccc12)c1c(N)n(Cc2ccccc2)c(=O)[nH]c1=O | 9.65
CCCC(=O)OCC(=O)NCc1ccc(Cl)cc1 | 9.37
Cc1ccc(C(=O)Nc2cccc(C(=O)N3CCOCC3)c2)cc1 | 3.75
COc1cc(/C=N/O)ccc1OCc1ccc(Cl)cc1 | 11
CCN(CC)S(=O)(=O)c1ccc(NC(=O)CSc2nnc(-c3cccc(OC)c3)n2C)cc1 | -0.303
CCCOP(=O)(OCCC)C(NC(=O)C(C)(C)C)c1ccccc1 (stereo not drawn) | 8.12
O=c1[nH]c(SCc2ccc(F)cc2Cl)nc2ccccc12 | 15.1
COc1ccc(/C=C2\N=C(c3c(-c4ccccc4)noc3C)OC2=O)cc1OC | 5.96
Cc1ccc(NC(=O)CSc2nnc(-c3cccnc3)n2CCN2CCCCC2)cc1 | -53.7
COc1cc(C(=O)Nc2ccc(O)cc2C(=O)O)ccc1OC(C)=O | -6.62
CCOC(=O)CC(=O)CSc1ccc2nnc(-c3ccccc3)n2n1 | -40.9
Cc1cc(C)nc(CCNC(=O)c2cc(COc3ccccc3)on2)n1 | 11
Cc1ccc(C(=O)COC(=O)CNC(=O)c2cccs2)cc1 | 3.85
COc1ccc(S(=O)(=O)Nc2cc(Cl)ccc2OC)cc1 | 1.63

Structure (SMILES) | hERG current change (%, negative = inhibition) at 1uM [%]
Cc1nc2ccc([N+](=O)[O-])cc2c(=O)n1Cc1cccc(F)c1 | 2.47
Brc1ccc(C2NCCS2)cc1 (stereo not drawn) | 6.09
CCCCNc1c(NC(C)=O)c(=O)oc2ccccc12 | 13
CCOc1ccc(Br)cc1S(=O)(=O)Nc1ccccc1N1CCOCC1 | -13.2
CC1CCN(CCCNC(=O)c2ccc(Cn3c(=S)[nH]c4ccc(Br)cc4c3=O)cc2)CC1 | 10.9
Cn1c(=O)n(C)c2cc(NC(=O)C(F)(F)F)ccc21 | 8.59
O=C(CN1CCN(Cc2ccccc2)CC1)N=Nc1c(O)[nH]c2ccccc12 | -37.6
COc1ccc(NC(=O)CNC(=O)c2c(C)nn(C)c2Cl)cc1 | 15.1
CCc1c(C(=O)N2CCN(c3ccccc3F)CC2)[nH]c(C)c1C(C)=O | 6.3
c1ccc(Nc2nc(N3CCCCC3)nc(N3CCNCC3)n2)cc1 | 1.69
COc1ccc(OC)c(CNc2ccc3c(c2)CCC3)c1 | 14.9
O=c1cc(-c2ccccc2)nc2nc(CCc3ccccc3)[nH]n12 | 16.9
CN1C(=O)c2oc3ccccc3c(=O)c2C1c1cccnc1 (stereo not drawn) | -2.06
CCOC(=O)c1ncccc1NC(=O)CC(=O)Nc1cccnc1C(=O)OCC | 12.1
CCOC(=O)c1sc(NC(=O)c2ccc(S(=O)(=O)N(CC)CC)cc2)nc1C | 3.55
Cc1cccc(Cn2ccc(NC(=O)c3ccc4c(c3)OCO4)n2)c1 | 2.14
CC(NC(=O)c1ccco1)c1ccc2c(c1)OCO2 (stereo not drawn) | -4.89
COCCn1c(SCC(=O)Nc2ccc(NC(=O)c3ccco3)c(OC)c2)nc2ccccc2c1=O | 1.17
COC(=O)[C@H]1C[C@@H]1[C@H](NP(=O)(c1ccccc1)c1ccccc1)c1ccccc1 | 9.06
O=C1NC(=O)C2(Cc3ccccc3N3CCCC32)C(=O)N1 (stereo not drawn) | 3.76
COc1ccc(CCNC(=O)CCC(=O)N2CC(C)Oc3ccc(Cl)cc32)cc1OC (stereo not drawn) | 10.2
CSCCC(NC(=O)c1cccc([N+](=O)[O-])c1)c1nc2ccccc2[nH]1 (stereo not drawn) | -0.896
